The source of these data is PubChem BioAssay AID1347073 (National Center for Advancing Translational Sciences (NCATS), 2019).

Among all 45,000 compounds or so, about 200 (0.44%) were called active. Another 7% or so got no clear call; they are omitted. Calls come from the whole dose curve; as a rule, active = well fitted activation curve with a large enough effect; inconclusive = small, poorly fitted or top-dose-only effect; inactive = no such curve, though single readings can be large or run the other way. The list shows a part of the results.

The nature of the experiment: qHTS of TDP-43 Inhibitors: NCGC Sytravon Library Screen. Note: 0% is about no effect; nearly all actives have a fitted effect of over 55% in size. The following applies: yeast TDP-43 toxicity rescue, BacTiter-Glo growth, 24 h; series mostly up to 46.1 µM; growth rescue (activation): at the top concentration. In a few lines: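 TDP-43-expressing yeast, pregrown in raffinose, seeded at OD600 0.02 in galactose medium with compound for 24 hr at 30 deg C. Growth read by BacTiter-Glo luminescence, so rescue of toxicity appears as activation.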
A general note: In qHTS, concentration-response curves come from the screen itself.
Regarding `CCN(c1ccccc1)S(=O)(=O)c1nnc(NC(=O)C(C)C)s1`, the “growth rescue (activation)” value is inactive: -16.9%. The same measure for `Cc1cc(/C=C(\C#N)C(=O)N2CCCCC2)cc(C)c1O`: inactive: 13%; for `CC1=C(C(=O)Nc2ccccc2)C(c2cccs2)NC(=O)N1` (stereo not drawn): inactive: -5.61%; for `COCCC1CCCCN1C(=O)c1cccc(OC2CCN(S(C)(=O)=O)CC2)c1` (stereo not drawn): inactive: 11.8%. The figure for `O=C(CSc1nnc2ccccn12)NNC(=O)c1ccccc1F` is inactive: -14%; for `C=C(C)CNC(=S)N/N=C/c1ccc(NC(C)=O)cc1` it is inactive: 3.24%. The figure for `CCN(Cc1nc(-c2ccccc2)no1)C(=O)c1ccc2c(c1)OCO2` is inactive: 21.2%. As for `COc1cc([N+](=O)[O-])cc2sc(NC(=O)C(C)(C)C)nc12`, the “growth rescue (activation)” value is inactive: 0.527%. As for `CC(C)Cn1cc(-c2cccc3nccn23)cn1`, the “growth rescue (activation)” value is inactive: 7.08%. The same measure for `COc1ccc(S(=O)(=O)Nc2ccc(N3CCOCC3)cc2)cc1[N+](=O)[O-]`: inactive: 7.1%. The figure for `O=C(Cc1ccc(-c2ccccc2)cc1)NC(c1ccccc1)c1ccccc1` is inactive: 23.9%; for `CCCn1nnc(NC(=S)NC(=O)/C=C/c2ccc(Cl)cc2)n1` it is inactive: -5.44%; for `O=C(N/N=C/c1ccc(Cl)c([N+](=O)[O-])c1)c1cnccn1` it is inactive: 6.23%. The figure for `CNCc1cc(Cl)cc(OC)c1OC(C)C` is inactive: -13.6%; for `COc1ccc(/C(C)=N/NC(=O)c2cc(-c3cccnc3)nc3ccccc23)cc1` it is inactive: -3.26%; for `Cc1ccc2[nH]c(=O)c(CN(Cc3cccs3)S(=O)(=O)c3ccc4c(c3)OCCO4)cc2c1` it is inactive: -17.7%. With `S=c1nc(-c2cccc(Cl)c2)[nH][nH]1`, the “growth rescue (activation)” value was inactive: -3.51%. The same measure for `COc1ccccc1NC(=O)C(C)N(C)CC(=O)Nc1cccc2ccccc12` (stereo not drawn): inactive: 25.1%. The same measure for `Cc1occc1C(=O)NCc1cccs1`: inactive: -9.87%; for `CC(=O)Nc1cnc(-c2cccc(C(=O)N(C)C)c2)cn1`: inactive: 6.24%; for `O=C(N/N=C/c1ccc([N+](=O)[O-])s1)c1ccncc1`: inactive: -3.36%. On to `CC(C)c1ccc(/C=C/C(=O)Nc2nncs2)cc1`, for which the “growth rescue (activation)” value is inactive: 13.9%. Consider `Cc1cc(C)cc(NC(=O)CSc2nnc(CNC(=O)c3ccco3)o2)c1`, for which the “growth rescue (activation)” value was inactive: -0.623%. The same measure for `CCc1cccc(NS(=O)(=O)c2ccc3c(c2)NC(=O)CC(=O)N3)c1`: inactive: -0.355%. The same measure for `COc1cc([N+](=O)[O-])ccc1-c1ccc(/C=N/NC(N)=O)o1`: inactive: 3.67%; for `CC1(C)NC(=O)N(CC(=O)OCC(=O)c2ccc(Cl)s2)C1=O`: inactive: 11.4%.

Regarding `COc1ccc(OCCN2CCC(C(=O)NC(c3ccccn3)c3ccccc3OC)CC2)cc1` (stereo not drawn), the “growth rescue (activation)” value was inactive: -2.75%. The figure for `CC(NC(=O)c1cc2ccccc2oc1=O)c1ccccc1` (stereo not drawn) is inactive: 24.7%; for `COc1ccc(OC)c(/C=C/C(=O)NCCc2nc3ccccc3[nH]2)c1` it is inactive: 12.7%.

For `CCNC(=O)NC(=O)C(C)OC(=O)C(C)(C)Oc1ccc(Cl)cc1` (stereo not drawn), the “growth rescue (activation)” value was inactive: -0.648%.

With `Oc1ccccc1/C=N/N1CCN(c2ccccn2)CC1`, the “growth rescue (activation)” value was inactive: 1.75%. The figure for `CC(C)CN1C(=O)c2ccc(C(=O)Nc3ccccc3C(=O)O)cc2C1=O` is inactive: -0.512%; for `C/C(=N\NC(=O)c1ccc(CN2CCc3ccccc3C2)cc1)c1ccccc1O` it is inactive: 12.2%.

Regarding `CC(=O)Nc1cccc(Nc2nc(-c3cccs3)nc3ccccc23)c1`, the “growth rescue (activation)” value is inactive: -10.8%. The figure for `O=C(COC(=O)C1CCCN1C(=O)c1cccs1)c1ccccc1` (stereo not drawn) is inactive: -8.09%. The figure for `COc1ccc(-n2c(C)c(C(=O)O)c3cc(OC)c4ccccc4c32)cc1` is inactive: 10.1%; for `CCCn1c(SCC(=O)NC2CCCC2)nnc1C(C)C` it is inactive: -3.13%; for `CC1(C)C2CCC1(CS(=O)(=O)NCCc1c[nH]c3ccccc13)C(=O)C2` (stereo not drawn) it is inactive: 8.17%. As to `Cc1ccc(Nc2nnc(SCc3cc(=O)n4cc(C)ccc4n3)s2)cc1`, the “growth rescue (activation)” value was inactive: 5.48%.

Take `O=C1c2cccc3cccc(c23)C(=O)N1c1ccccn1`: the “growth rescue (activation)” value is inactive: -13.9%. With `COc1ccc(C(C)=O)cc1CSc1ccc2c(c1)OCCO2`, the “growth rescue (activation)” value is inactive: 14.2%.

As to `COc1ccc(OC)c(/C=C2\SC(N3CCCCC3)=NC2=O)c1`, the “growth rescue (activation)” value is inactive: -2.96%.

As for `CC1CCN(CCCNc2cc(NCCO)c([N+](=O)[O-])c3nonc23)CC1`, the “growth rescue (activation)” value is inactive: 0.896%. The same measure for `O=C1c2cccc([N+](=O)[O-])c2C(=O)N1c1c[nH]c(=O)[nH]c1=O`: inactive: 7.83%; for `Cc1nc2ccc(NC(=S)NC3CCCCC3)cc2nc1C`: inactive: 16.3%; for `O=C(NCC1CCCO1)C1CCC(CNS(=O)(=O)c2ccccc2)CC1` (stereo not drawn): inactive: -38.6%. The figure for `CCOc1ccc(S(=O)(=O)N2CCCC(C(=O)NCCN3CCOCC3)C2)cc1Cl` (stereo not drawn) is inactive: -3.8%.

Turning to `Cc1ccc(C(=O)N/C(=C\c2ccc(-c3ccc(Cl)cc3)o2)C(=O)NCCCN(C)C)cc1`, the “growth rescue (activation)” value was inactive: 8.7%.

Consider `NS(=O)(=O)c1ccc(NC(=O)CSc2cn[nH]n2)cc1`, for which the “growth rescue (activation)” value is inactive: -10.5%. The same measure for `O=C(NNC(=O)c1ccccc1O)c1ccco1`: inactive: -5.04%; for `CCOc1ccc(NC(=O)CCC(=O)NNC(=O)NC2CCCCC2)cc1`: inactive: -6.88%; for `CC(C)c1ccc(N(CC(=O)NCCCN2CCOCC2)S(=O)(=O)c2ccccc2)cc1`: inactive: 24.9%. For the molecule `COc1ccc(-c2ocnc2C(=O)Nc2ccc3c(c2)CCC3)cc1`, the “growth rescue (activation)” value was inactive: 10.2%.

On to `Cc1ccsc1CNCC(O)c1ccccc1` (stereo not drawn), for which the “growth rescue (activation)” value was inactive: -6.73%. The same measure for `O=C(Nc1ccc(Br)cc1)c1ccc(N2C(=O)C3CC=CCC3C2=O)cc1` (stereo not drawn): inactive: 12.3%.

Consider `O=C(C[n+]1cccc(CNC(=O)c2ccc(OC(F)F)cc2)c1)Nc1cccc(C(F)(F)F)c1`, for which the “growth rescue (activation)” value is inactive: 2.61%. The figure for `COCCN(C(=O)CCC(=O)Nc1ccccn1)C(C(=O)NC(C)C)c1ccc(Cl)cc1` (stereo not drawn) is inactive: -8.82%; for `COc1cccc(C(=O)OCC(=O)NCc2ccc3c(c2)OCO3)c1OC` it is inactive: -2.25%.

Take `Cn1cccc1C(=O)NC(=O)COC(=O)c1ccc(S(C)(=O)=O)c([N+](=O)[O-])c1`: the “growth rescue (activation)” value is inactive: 2.36%. The same measure for `CCC(NC(=O)OCc1ccccc1)C(=O)Oc1ccc2ccc(=O)oc2c1` (stereo not drawn): inactive: -23.1%; for `C/C(=N\N=C1\NC(=O)CC(C(=O)O)S1)c1ccc(F)cc1` (stereo not drawn): inactive: 13.7%. The same measure for `CCc1cccc(CC)c1NC(=O)COn1nnc2ccc(C(F)(F)F)cc21`: inactive: -23.5%; for `C/C(N)=C(/C#N)C(=O)CSc1n[nH]c(-c2ccccc2Br)n1`: inactive: -19.1%. The same measure for `O=C(Cn1ncc2c3ccccc3n(Cc3cccc(Cl)c3)c2c1=O)NCC1CCCO1` (stereo not drawn): inactive: 4.77%; for `CCNC(=O)COC(=O)c1cccc(Br)c1`: inactive: 29.8%; for `Cn1c(=S)ccc2ccccc21`: inactive: 6.17%. With `Cc1nc(NC(=S)NC(=O)COc2ccccc2Cl)ccc1Br`, the “growth rescue (activation)” value is inactive: 7.37%. The same measure for `c1cc(-c2ccc3nncn3c2)ccc1CN1CCOCC1`: inactive: -10.6%; for `O=C(NC(=S)Nc1ccc(Br)cn1)c1cccnc1`: inactive: -4.96%; for `COc1ccc(/C=N/NC(=O)c2cc3c(OC)ccc(OC)c3[nH]2)cc1O`: inactive: 9.19%.

Consider `COc1ccc(CNC(=O)C/C(C)=N/NC(=O)Cc2ccc(OC)cc2)cc1`, for which the “growth rescue (activation)” value was inactive: 1.95%. The same measure for `O=c1c2ccccc2ncn1-c1ccccc1F`: inactive: 5.75%; for `Cc1c(CN(C)Cc2cn(C)nc2-c2ccccc2F)[nH]c2ccccc12`: inactive: -1.87%. The figure for `CCOC(=O)Nc1ccc2c(COC(=O)C(NS(=O)(=O)c3ccc(Cl)cc3)C(C)O)cc(=O)oc2c1` (stereo not drawn) is inactive: 14.7%.

For the molecule `O=C(COc1ccc(S(=O)(=O)N2CCCCC2)cc1Cl)N1CCCC1`, the “growth rescue (activation)” value is inactive: 1.07%. For the molecule `S=c1[nH]c(-c2ccccc2)cn1/N=C/c1cccs1`, the “growth rescue (activation)” value was inactive: 21.6%.

In the case of `COCCNC(=O)C1(C)CCN(C(=O)C2(c3ccc(Cl)cc3)CCCC2)C1` (stereo not drawn), the “growth rescue (activation)” value is inactive: -2.2%.

For `CCc1ccc(-n2c(=O)c3c(C)c(C)sc3n(CC(=O)NCC3CCCO3)c2=O)cc1` (stereo not drawn), the “growth rescue (activation)” value was inactive: 5.33%. The same measure for `O=C(Cc1ccc(Cl)c(Cl)c1)Nc1cccnc1`: inactive: 4.02%.

As for `Cc1ccccc1C(=O)Nc1cccc(-c2cn3ccccc3n2)c1`, the “growth rescue (activation)” value is inactive: 9.92%. For `CN1CCN(c2ccc(Cl)cc2NC(=O)c2nn(-c3ccccc3)c(=O)c3ccccc23)CC1`, the “growth rescue (activation)” value is inactive: 4.24%.

For the molecule `COc1cc(/C=C/C(=O)OCC(=O)N2CCN(S(=O)(=O)c3ccc(C)cc3C)CC2)ccc1O`, the “growth rescue (activation)” value is inactive: 19.6%. The figure for `OC[C@@H]1CN(Cc2ccc(F)cc2)C[C@H](n2cnc3c(NC4CC4)ncnc32)O1` is inactive: 0.319%; for `CCCC1=NN(C(=O)C(=O)Nc2ccc(Br)cc2)C(O)(C(F)(F)F)C1` (stereo not drawn) it is inactive: 15%; for `CN(C)S(=O)(=O)N1CCN(C(=O)c2ccc3c(c2)OCO3)CC1` it is inactive: 20.1%. On to `O=C(Nc1ccc(Br)cc1)c1cc(S(=O)(=O)Nc2ccccn2)ccc1Cl`, for which the “growth rescue (activation)” value was inactive: 1.02%. The figure for `COc1cccc(OC)c1OC(=O)/C=C/c1ccc(C)o1` is inactive: 19.9%; for `O=C(NCCCN1CCOCC1)C(=O)c1c[nH]c2ccccc12` it is inactive: -13.1%; for `COc1ccc(/C(=N\O)c2ncc(C(F)(F)F)cc2Cl)cc1` it is inactive: 13.5%. The figure for `CCc1ccc(NC(=O)COc2ccc(F)cc2C(=O)c2cnn(-c3ccccc3)c2)cc1` is inactive: 14.7%. The same measure for `Cc1cc(C(=O)OCC(=O)Nc2cccc(S(N)(=O)=O)c2)c(C)o1`: inactive: 25.8%; for `Cc1cc2nc(-c3ccc(NC(=O)c4ccc(OCC(C)C)cc4)cc3)oc2cc1C`: inactive: -2.09%.

Regarding `COc1ccccc1C(C)NCC(=O)Nc1ccccc1C(F)(F)F` (stereo not drawn), the “growth rescue (activation)” value was inactive: 6.51%. The same measure for `COc1ccc(C(=O)CSc2nnc(CN3CCCCC3)n2-c2ccc(Cl)cc2)cc1OC`: inactive: 1.65%; for `CC(C)NC(=O)C1CCN(C2CCN(CC3CC=CCC3)CC2)CC1` (stereo not drawn): inactive: 6.81%; for `CCOC(=O)C1(C)CCN1C(=O)Cc1ccc(OC)cc1` (stereo not drawn): inactive: -5.57%. The figure for `CN(CC(=O)Nc1ccc2c(c1)OCCO2)CC(=O)Nc1ccc(F)c(F)c1F` is inactive: 1.13%; for `O=C(O)c1cccc(NC(=S)NC(NC(=O)c2ccco2)C(Cl)(Cl)Cl)c1` (stereo not drawn) it is inactive: -2.51%. Take `Cc1sc2nc(COC(=O)c3cccc(S(=O)(=O)N(C)c4ccccc4)c3)[nH]c(=O)c2c1C`: the “growth rescue (activation)” value was inactive: 10.6%. Consider `Brc1ccc(-c2csc(N/N=C/c3cccnc3)n2)cc1`, for which the “growth rescue (activation)” value is inactive: 12.7%. The figure for `CCN(CC)CC(=O)Nc1ccc([N+](=O)[O-])cc1` is inactive: -20%; for `CCOc1ccc(N(C(=O)CNC(=O)c2ccco2)C(C(=O)NC2CCCC2)c2ccncc2)cc1` (stereo not drawn) it is inactive: -5.3%. The figure for `Cn1c(NCCN2CCCC2)nc2cc(-c3ccccc3)sc2c1=O` is inactive: 5.76%; for `COc1ccc(N(Cc2cc(=O)[nH]c3ccccc23)C(=O)CCl)cc1` it is inactive: 3.57%; for `CN(c1ccc(C(=O)NCc2ccc3c(c2)OCO3)cc1)S(=O)(=O)c1ccccc1` it is inactive: 18.6%. Turning to `O=C(O)CC1S/C(=N/N=C/C2CC=CCC2)NC1=O` (stereo not drawn), the “growth rescue (activation)” value was inactive: -19.1%. The same measure for `CS(=O)(=O)N1CCN(c2ccc([N+](=O)[O-])cc2C(F)(F)F)CC1`: inactive: 26%; for `CC(=O)c1cccc(NC(=O)c2cc(S(=O)(=O)N3CCOCC3)cs2)c1`: inactive: 6.56%.
